The campaign covered roughly 390,000 compounds. About 4,700 (1.2%) were called active. The shares of active, inactive and inconclusive entries below differ from those in the screen. The call rests on the fitted dose curve; in most records, active means well fitted inhibition curve with a large enough effect; inconclusive means small, poorly fitted or top-dose-only effect, or another doubt; inactive means no such curve, though single readings can be large or run the other way. Where the call is inconclusive, the potency comes from a doubtful curve fit.
Biological target: DNA polymerase eta (Homo sapiens) (UniProt Q9Y253)
Experiment: qHTS for Inhibitors of Polymerase Eta
Conditions: recombinant Pol eta, fluorescent DNA replication assay; series mostly up to 114 µM
Description: The Y-family of DNA polymerases, such as Pol eta, are specifically involved in DNA repair. Pol eta copies undamaged DNA with a lower fidelity than other DNA-directed polymerases. However, it accurately replicates UV-damaged DNA; when thymine dimers are present, this polymerase inserts the complementary nucleotides in the newly synthesized DNA, thereby bypassing the lesion and suppressing the mutagenic effect of UV-induced DNA damage. […] Thus, while pol eta's (and most likely iota's) normal function is to protect humans against the deleterious consequences of DNA damage, under certain conditions they can have deleterious effects on human health. As a consequence, we propose to utilize a high throughput replication assay to identify small molecule inhibitors of pol eta. In a collaboration between the National Institute of Child Health & Human Development (NICHD) and NIH Chemical Genomics Center, a high-throughput, fluorescent screen was developed to screen the NIH Molecular Libraries Small Molecule Repository (MLSMR). This screen is used to identify inhibitors of pol eta. NIH Chemical Genomics Center [NCGC] NIH Molecular Libraries Probe Centers Network [MLPCN] MLPCN Grant: MH090825 Assay Submitter (PI): Roger Woodgate, NICHD)
Three microliters of reagents (buffer in column 3 and 4 as negative control and 10 nM Pol eta in columns 1, 2, and 5-48) were dispensed into a 1,536-well black solid-bottomed plate. Compounds (23 nL) were transferred via Kalypsys pin tool equipped with 1536-pin array. The plates were then incubated for 15 min at room temperature, and 1 µL substrate (50 nM final concentration) was added to start the reaction and kinetically read twice at 0 min and 10 min on the Viewlux reader
Potency means the concentration at half of the fitted maximal effect; tags describe the fitted curve by direction and shape.

Chain of UniProt Q9Y253 (Q9Y253 whole entry, looked up): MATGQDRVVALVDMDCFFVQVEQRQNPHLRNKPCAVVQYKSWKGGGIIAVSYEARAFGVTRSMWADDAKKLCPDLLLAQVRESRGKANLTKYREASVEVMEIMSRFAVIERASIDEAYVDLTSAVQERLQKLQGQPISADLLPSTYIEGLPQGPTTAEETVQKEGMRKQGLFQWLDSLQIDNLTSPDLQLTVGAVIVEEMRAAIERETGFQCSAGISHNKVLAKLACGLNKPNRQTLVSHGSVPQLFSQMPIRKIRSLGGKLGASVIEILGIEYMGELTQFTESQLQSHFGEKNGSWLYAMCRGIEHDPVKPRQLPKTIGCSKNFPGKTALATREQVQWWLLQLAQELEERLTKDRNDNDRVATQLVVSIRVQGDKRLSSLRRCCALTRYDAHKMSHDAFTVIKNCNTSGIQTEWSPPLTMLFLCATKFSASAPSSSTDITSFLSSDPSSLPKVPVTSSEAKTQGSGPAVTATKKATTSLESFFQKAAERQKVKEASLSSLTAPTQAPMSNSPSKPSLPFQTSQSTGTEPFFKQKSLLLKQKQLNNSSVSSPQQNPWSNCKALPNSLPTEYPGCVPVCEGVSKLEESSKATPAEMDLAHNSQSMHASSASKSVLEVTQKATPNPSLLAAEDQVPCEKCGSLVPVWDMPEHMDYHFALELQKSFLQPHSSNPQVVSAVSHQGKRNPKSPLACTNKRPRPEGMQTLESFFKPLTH

| Structure (SMILES) | Potency |
| --- | --- |
| C[C@H](O)[C@@H]1C(=O)N2CCc3ccc(-c4ccccc4)cc3[C@@H]2C[C@@H]1N(C)C(=S)Nc1ccc(F)cc1 | inconclusive: 56.2 µM [inhibitor, partial curve, poor fit] |
| O=c1cc(CSc2nnc(-c3cccs3)n2Cc2ccccc2)nc2sc3ccccc3n12 | inconclusive: 3.98 µM [inhibitor, full curve, poor fit] |
| Cc1cc(C)c2nc(SCC(=O)N3CC(=O)Nc4ccccc43)c(C#N)cc2c1 | inconclusive: 22.4 µM [inhibitor, partial curve] |
| Cc1ccc(S(=O)(=O)N2CCC(C(=O)OC3CCOC3=O)CC2)cc1C (stereo unspecified) | inactive |
| Cc1cc(N/N=C/c2ccc(O)cc2O)nc(N2CCOCC2)n1 | inconclusive: 50.1 µM [inhibitor, partial curve, poor fit] |
| O=C(Nc1cc([N+](=O)[O-])ccc1O)c1cccc(C(=O)Nc2cc([N+](=O)[O-])ccc2O)c1 | inconclusive: 56.2 µM [inhibitor, partial curve, poor fit] |
| CCC(=O)OCc1cc(=O)n2nc(C3CC3)sc2n1 | inactive |
| COc1ccccc1NC(=O)c1ccc(NC(=O)COC(=O)c2cccnc2Cl)cc1 | inactive |
| Cc1ccc(/C=N/Nc2ccc3ccccc3n2)o1 | inconclusive: 89.1 µM [inhibitor, partial curve, poor fit] |
| Cc1ccnc(NC(=O)Nc2ccc3c(c2)N(C)C(=O)CS3)c1 | inactive |
| Cc1ccc([C@H]2C[C@H](O)[C@@H](n3cc(-c4ccc(F)cc4)nn3)CN2CC2CCCCC2)cc1 | inconclusive: 50.1 µM [inhibitor, partial curve, poor fit] |
| Cc1sc2ncnc(N3CCC(C(=O)NNC(=O)COc4cccc(C(F)(F)F)c4)CC3)c2c1C | inconclusive: 6.31 µM [inhibitor, partial curve, poor fit] |
| COc1ccccc1CNC(=O)COC(=O)c1ccc([N+](=O)[O-])o1 | inconclusive: 89.1 µM [inhibitor, single point] |
| O=C(O)c1cnn2c1C(=O)N(Cc1cccs1)CC2 | active: 31.6 µM |
| Cn1ccsc1=NC(=O)c1ccc([N+](=O)[O-])o1 | active: 39.8 µM |
| Cc1ccc(Cc2nc3ccccc3nc2SCC(=O)N2CCC(C)CC2)cc1 | inconclusive: 89.1 µM [inhibitor, partial curve, poor fit] |
| CN(C)c1ccc(C(=O)OCC(=O)c2cccs2)cc1 | inconclusive: 25.1 µM [inhibitor, partial curve] |
| FC(F)(F)c1cccc(N2CCN(c3ncnc4c3nc3n4CCCC3)CC2)c1 | inactive |
| COC(=O)CSc1nc2nc(-c3cccs3)cc(C(F)(F)F)c2c(=O)[nH]1 | inactive |
| COc1ccc(CNC(=O)Cn2c(=O)oc3cc(S(=O)(=O)NCc4ccccc4)ccc32)cc1 | inactive |
| CCOC(=O)N1CCN(C(=O)NC2CCCCC2)CC1 | inconclusive: 39.8 µM [inhibitor, single point] |
| O=[N+]([O-])c1ccc(O)c(Nc2ncnc3ccccc23)c1 | inconclusive: 39.8 µM [inhibitor, single point] |

| Structure (SMILES) | Potency |
| --- | --- |
| CCOC(=O)c1sc(N)nc1C(C)C | inconclusive: 20 µM [inhibitor, partial curve, poor fit] |
| CSc1nc2nccc(-c3ccc(-c4ccccc4)cc3)n2n1 | inconclusive: 56.2 µM [inhibitor, partial curve, poor fit] |
| CCCCNc1c(-c2ccc(SC3CCCCC3)cc2)nc2cnccn12 | inconclusive: 79.4 µM [inhibitor, partial curve, poor fit] |
| COc1ccc(S(=O)(=O)N2CCOCC2)cc1C(=O)NC1CCCCCC1 | inactive |
| COc1ccc(-c2ccc(CN3C(C)C(=O)N(Cc4cn(CCC5OCCCO5)nn4)CCS3(=O)=O)cc2)cc1 (stereo unspecified) | inconclusive: 25.1 µM [inhibitor, partial curve, poor fit] |
| O=C(O)c1cccc(Cn2c(Cl)c(/C=N/NC(=O)c3ccco3)sc2=O)c1 | inconclusive: 79.4 µM [inhibitor, partial curve] |
| CCOc1ccc(-n2c(C)cc(/C=C3/C(=N)N4C(=NC3=O)SN=C4S(C)(=O)=O)c2C)cc1 | active: 39.8 µM |
| COc1ccc(/C=C(/NC(=O)c2ccc(Br)o2)C(=O)Nc2cccc(C(=O)O)c2)cc1 | inactive |
| C#CCOC(=O)CCCNc1ccc([N+](=O)[O-])cc1[N+](=O)[O-] | inconclusive: 89.1 µM [inhibitor, single point] |
| Cc1cc(NC(=O)N2CCC(CN3CCCCCC3)CC2)ccc1Br | inactive |
| CCOC(=O)c1c(C)[nH]c(C(=O)OCC(O)=C(C#N)c2nc3ccccc3[nH]2)c1C | inconclusive: 35.5 µM [inhibitor, partial curve, poor fit] |
| CCN(Cc1nc2cc(Cl)ccc2c(=O)[nH]1)C(=O)c1cccc(OCc2c(C)noc2C)c1 | inconclusive: 89.1 µM [inhibitor, partial curve, poor fit] |
| Nc1ccc(C(=O)N/N=C/c2cccc(Oc3ccccc3)c2)cc1 | inconclusive: 44.7 µM [inhibitor, partial curve, poor fit] |
| Cc1cccnc1NC(=O)CCc1nnc2ccc(NCc3ccco3)nn12 | active: 44.7 µM |
| Nc1cc(-c2ccncc2)c[nH]c1=O | inconclusive: 89.1 µM [inhibitor, single point] |
| CC(C)Cn1c(N)c(C(=O)COC(=O)c2ccc([N+](=O)[O-])o2)c(=O)n(C)c1=O | inconclusive: 89.1 µM [inhibitor, single point] |
| Cc1ccc2nc(N3C(=O)C(O)=C(C(=O)c4ccc(C)o4)C3c3ccc(O)cc3)sc2c1 (stereo unspecified) | inconclusive: 11.2 µM [inhibitor, partial curve, poor fit] |
| COc1cccc(/C=N/N2CCOCC2)c1O | inactive |
| CSc1ncnc2c1ncn2CCCN1CCN(c2ncccn2)CC1 | inactive |
| CCOC(=O)C1CCCN(c2c(C(=O)c3ccccc3)cnc3ccc(F)cc23)C1 (stereo unspecified) | inactive |
| COc1ccc(CNC(=O)N2CCc3ccccc3C2)cc1 | inconclusive: 89.1 µM [inhibitor, partial curve, poor fit] |
| O=C(COC(=O)C1CCN(c2ccc(C(F)(F)F)cn2)CC1)NC1CCCCC1 | inactive |

| Structure (SMILES) | Potency |
| --- | --- |
| COc1ccccc1/C=C1\SC(=S)N(CCC(=O)Nc2ccc(C(=O)O)c(O)c2)C1=O | active: 35.5 µM |
| CCc1ccc2[nH]c(O)c(N=NC3=NC(=O)CS3)c2c1 | inconclusive: 44.7 µM [inhibitor, partial curve] |
| C#CCOCCOCCOCCNc1nc(N2CCN(C(=O)CCCCCCCCCCNC(=O)[C@H]([C@@H](C)CC)n3cc(CCCCCN)nn3)CC2)nc(N2CCN(C(=O)CCCCCCCCCCNC(=O)[C@@H]([C@H](C)O)n3cc(C)nn3)CC2)n1 | inconclusive: 79.4 µM [inhibitor, single point] |
| O=C(Nc1cccc([N+](=O)[O-])c1)c1cc2ccccc2cc1O | inconclusive: 44.7 µM [inhibitor, partial curve, poor fit] |
| CSc1ccccc1NC(=O)c1noc2c1CCC2 | active: 28.2 µM |
| CCn1c(=O)c2cc(C(=O)N(C)c3cc(C)ccc3OC)sc2c2ccccc21 | inconclusive: 25.1 µM [inhibitor, single point] |
| CC(C)Cc1nc(N2CCN(C(=O)c3ccco3)CC2)c(C#N)c2c1CCC2 | inconclusive: 17.8 µM [inhibitor, single point] |
| COc1cc2[nH]c3c(N4CCN(c5ccccn5)CC4)ncnc3c2cc1OC | inconclusive: 15.8 µM [inhibitor, full curve] |
| Cc1nc(NCc2ccco2)c2c3c(sc2n1)CCC3 | inconclusive: 17.8 µM [inhibitor, partial curve] |
| O=C(COc1ccccc1)Nc1ccc(S(=O)(=O)NCc2ccco2)cc1 | active: 17.8 µM |
| CC1CN(C(=O)COC(=O)[C@@H]2CC(O)CN2S(=O)(=O)c2ccc3c(c2)OCCO3)CC(C)O1 (stereo partly specified) | inconclusive: 35.5 µM [inhibitor, partial curve, poor fit] |
| Cc1ccc2c(c1)c1nc3ccccc3nc1n2CCN1CCOCC1 | inconclusive: 20 µM [inhibitor, partial curve] |
| O=C(NCC(c1ccc(F)cc1)N1CCOCC1)c1ccc([N+](=O)[O-])o1 (stereo unspecified) | inactive |
| CCC(C)Oc1ccc(/C=C/c2[nH]c(=O)[nH]c(=O)c2[N+](=O)[O-])cc1OC (stereo unspecified) | inactive |
| CCN(CC)CCOC(=O)c1ccc(NC(=O)c2cc3c(s2)-c2ccccc2OC3)cc1 | inactive |
| CCC(C)NC(=O)C(NS(=O)(=O)c1cccc2nsnc12)c1ccccc1 (stereo unspecified) | inconclusive: 39.8 µM [inhibitor, partial curve, poor fit] |
| O=C(/C=C/c1ccco1)Nc1cccc2cccnc12 | active: 28.2 µM |
| COc1ccc(NC(=O)Cn2cc(C(=O)c3ccccc3OC)c(=O)c3ccc(C)nc32)cc1OC | inactive |
| NC(=O)C1CCN(C2OC(=O)c3ccccc32)CC1 (stereo unspecified) | inconclusive: 31.6 µM [inhibitor, partial curve, poor fit] |
| NC(=O)CSc1nc2sc3c(c2c2ncnn12)CCCC3 | inconclusive: 22.4 µM [inhibitor, partial curve, poor fit] |
| Cc1cc(C)n2nc(C(=O)OCC(=O)N(CC(C)C)CC(C)C)nc2n1 | inconclusive: 89.1 µM [inhibitor, single point] |
| COc1ccc(NC(=O)CSc2nnc(-c3ccco3)c(-c3ccco3)n2)cc1OC | active: 50.1 µM |

From PubChem BioAssay AID588591 (National Center for Advancing Translational Sciences (NCATS), 2011)
